# Test results published in PubChem BioAssay AID686979 (National Center for Advancing Translational Sciences (NCATS), 2013).
# Screen size: about 420,000 compounds; about 50,000 (12%) were called active. Inconclusive means that the source gave no clear call. Such entries were picked first, then a sample of the others. Calls come from the whole dose curve; as a rule, active = well fitted inhibition curve with a large enough effect; inconclusive = small, poorly fitted or top-dose-only effect; inactive = flat fitted curve, though single readings scatter. Potencies of inconclusive entries are left out as doubtful fits.
# Assay: qHTS for Inhibitors of human tyrosyl-DNA phosphodiesterase 1 (TDP1): qHTS in cells in presence of CPT; note: nearly all actives have a fitted effect of over 55% in size
# Conditions: chicken DT40 Tdp1-/-;hTDP1 cells + 20 nM CPT, ATP luminescence, 48 h; activity change, negative = growth inhibition: at 46.2 µM (top of the series) unless noted
# Summary of the method: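 Chicken DT40 Tdp1-/- cells complemented with human TDP1, 400 cells/well, exposed to compounds plus 20 nM camptothecin for at least 48 h at 37 C; viability read as ATP content by CellTiter-Glo luminescence.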
# % is set by controls: 0 for no effect and ±100 for the full control effect; potency is the fitted concentration of half-maximal effect; tags give direction and shape of the fitted curve.
Compound,Potency,"activity change, negative = growth inhibition"
Cc1ccc(O)c(C(=O)c2cc(C#N)c3nc4ccccc4n3c2)c1,"inconclusive [inhibitor, partial curve]",–
CN(Cc1ccccc1)C(=O)c1cccc(NC(=O)Cc2ccc(NC(=O)C3CCCN(C(=O)C4CCC4)C3)cc2)c1 (stereo unspecified),"inconclusive [inhibitor, single point]",–
Cc1ccc(-c2csc(NC3OC(=O)c4ccccc43)n2)cc1 (stereo unspecified),"inconclusive [inhibitor, single point]",–
Cc1cc(C)c2oc(-c3cccc(NC(=O)c4cc5ccccc5o4)c3)nc2c1,"inconclusive [inhibitor, single point]",–
CC(C)(C)c1ccc(C(=O)N2CC(=O)Nc3ccc(F)cc3C2c2ccc(F)cc2)cc1 (stereo unspecified),active: 25.9 µM,–
CC(C)OC(=O)/C(=C\c1ccc2c(c1)c1ccccc1n2C)NC(=O)c1ccccc1,active: 20.6 µM,–
O=C(C1=C[C@H](C2CC2)C[C@H](OCCCCO)O1)N1CCN(Cc2ccccc2)CC1,"inconclusive [inhibitor, single point]",–
Cc1cc2cc(CN(Cc3cccs3)S(=O)(=O)c3ccc4c(c3)OCCO4)c(=O)[nH]c2cc1C,–,inconclusive: -33.1% [inhibitor]
COc1ccc(C2=NN(C(=O)CSC3=NN4CCCC(=O)N=C4S3)C(c3cccc(OC)c3OC)C2)cc1 (stereo unspecified),"inconclusive [inhibitor, single point]",–
CCOC(=O)c1sc(NC(=O)c2ccc(Br)o2)cc1C,"inconclusive [inhibitor, single point]",–
CCc1cnc2c(c1SCC(=O)NCc1ccccc1)c(=O)n(C)c(=O)n2C,active: 11.6 µM,–
O=C(NC1CCS(=O)(=O)C1)c1ccc(N2CCCCC2)c([N+](=O)[O-])c1 (stereo unspecified),–,inactive: -9.02%
CS(=O)(=O)Nc1ccccc1NS(C)(=O)=O,–,inactive: -1.38%
C[C@H](CO)N1C[C@H](C)[C@@H](CN(C)CC2CCCCC2)Oc2c(NS(=O)(=O)c3ccc(F)cc3)cccc2C1=O,"inconclusive [inhibitor, single point]",–
COc1cnc(-c2ccccn2)nc1N(C)c1ccccc1,active: 0.517 µM,–
Cc1ccc(S(=O)(=O)N(CCC#N)C2CCCCC2)c2nsnc12,active: 16.4 µM,–
CCC(CO)Oc1cc(NC(=O)c2ccccc2C)c2ncn(C(C)C)c2c1 (stereo unspecified),"inconclusive [inhibitor, partial curve]",–
O=P(c1ccccc1)(c1ccccc1)c1ccccc1C(Br)Br,–,inactive: -41.7%
Cc1ccc(C(=O)N(Cc2cc3cccc(C)c3nc2N(C)C)CC2CCCO2)cc1 (stereo unspecified),–,inactive: 8.72%
CC(=O)Nc1ccc(S(=O)(=O)Nc2ccc(N3CCOCC3)c(F)c2)cc1,"inconclusive [inhibitor, partial curve, poor fit]",–
Cc1c(N=Cc2c(O)n(C)c(=O)c3ccccc23)c(=O)n(-c2ccccc2)n1C,"inconclusive [inhibitor, partial curve]",–
CCOC(=O)C1(C)CCCN(C(=O)c2ccc(OC)cc2)C1 (stereo unspecified),–,inactive: 1.09%

Compound,Potency,"activity change, negative = growth inhibition"
Cc1ccc2nsnc2c1NC(=O)c1ccccc1[N+](=O)[O-],–,inactive: -0.576%
CCOC(=O)CC(NC(=O)c1ccc(C)cc1)c1ccc(C)cc1 (stereo unspecified),–,inactive: -2.78%
Cc1ccc(C(=O)NNC(=O)C(NC(=O)c2cccc(C)c2)C(C)C)cc1 (stereo unspecified),–,inactive: -10.3%
Cc1cccc(CN2CCN(C3CN(Cc4cn(Cc5cccc(C(F)(F)F)c5)nn4)S(=O)(=O)C3)CC2)c1 (stereo unspecified),"inconclusive [inhibitor, single point]",–
NC(=O)c1oc2ccc(Cl)cc2c1NC(=O)CN1CCOCC1,–,inactive: -28%
Cc1cn([C@H]2C[C@H](O)[C@@H](CCC(=O)NCCc3c[nH]c4ccccc34)O2)c(=O)[nH]c1=O,–,inactive: -22.3%
O=C(Nc1ccc(Cl)c([N+](=O)[O-])c1)C(Sc1ccccc1)c1ccccc1 (stereo unspecified),"inconclusive [inhibitor, single point]",–
Cc1cc2nc(-c3ccc(SCc4ccc(C#N)cc4)nc3)[nH]c2cc1C,"inconclusive [inhibitor, single point]",–
CCCCCCCCCCCCN1[C@@H](CC(=O)O)c2cc(F)ccc2S1(=O)=O,"inconclusive [inhibitor, single point]",–
O=S(=O)(NCCOCC(F)(F)C(F)F)c1ccc2oc3ccccc3c2c1,active: 25.9 µM,–
O=C(NCc1ccccc1)C(c1ccc(-c2ccccc2)cc1)N1CCN(c2ccccc2F)CC1 (stereo unspecified),active: 18.4 µM,–
COc1ccc(C2=NN(CN3C(=O)C(=O)c4ccccc43)C(c3ccc(OC)cc3)C2)cc1 (stereo unspecified),"inconclusive [inhibitor, single point]",–
Cc1ccc(CN(C)C(=O)c2ccccc2Oc2ccccc2)o1,"inconclusive [inhibitor, single point]",–
Cc1cccc(C(=O)N2CCC(=O)N([C@H](COCc3ccccc3)Cc3ccccc3)CC2)c1,"inconclusive [inhibitor, single point]",–
CC[N+](CC)(CC)c1ccc(/C=C/c2ccc3ccccc3n2)cc1,active: 0.0891 µM,–
Cc1ccnc(NS(=O)(=O)c2cc(-c3cc(C)no3)ccc2C)c1,–,inactive: 0.324%
COc1ccc(/C=C(/NC(=O)c2ccc(OC)c(OC)c2)C(=O)NCCCn2ccnc2)cc1,–,inactive: 0.247%
CNC(=S)Nc1ccc(C)cc1,–,inactive: -10.9%
Cc1ccoc1C(=O)N1CCCCC1C(=O)O (stereo unspecified),"inconclusive [inhibitor, single point]",–
COc1ccc(NC(=S)N(CCc2c(C)[nH]c3ccc(C)cc23)Cc2ccco2)cc1,"inconclusive [inhibitor, single point]",–
Cc1ccc(-n2ncc(C(=O)Nc3ccc4c(c3)OCO4)c2C2CCN(C(=O)OC(C)(C)C)CC2)cc1,active: 20.6 µM,–
COCCN1C(=O)c2ccccc2C1c1nnnn1-c1ccc2c(c1)OCCO2 (stereo unspecified),–,inactive: -9.06%

Compound,Potency,"activity change, negative = growth inhibition"
CSc1nc(-c2ccc(C)cc2)nc(N)c1C#N,"inconclusive [inhibitor, single point]",–
CCc1c(C2(O)CCCCC2)[nH]c2ccc(C(=O)OC)cc12,"inconclusive [inhibitor, single point]",–
CCC(NC(=O)C1CCC1)c1ccc(C)cc1 (stereo unspecified),–,inactive: -18.5%
CCC(C)OC(=O)C1=C(C)NC(=O)CC1c1ccccc1OC (stereo unspecified),active: 8.2 µM,–
O=[N+]([O-])c1cccc(S(=O)(=O)NCC2CCCO2)c1 (stereo unspecified),–,inactive: -12.9%
CCn1cc(C(=O)N2CCN(c3ccccn3)CC2)c(=O)c2cc(S(=O)(=O)N3CCC(C)CC3)ccc21,–,inactive: -0.921%
C[C@H](CO)N1C[C@H](C)[C@H](CN(C)S(=O)(=O)c2ccc3ccccc3c2)OCc2cnnn2CCCC1=O,"inconclusive [inhibitor, partial curve, poor fit]",–
O=[N+]([O-])c1ccc2nc(-c3ccccc3)[nH]c2c1,"inconclusive [inhibitor, single point]",–
CCc1nc(N2CCCCC2C)c2oc3ccccc3c2n1 (stereo unspecified),active: 29.1 µM,–
CCCN(CCC)C(=O)C1CC(=O)OC12CCCCC2 (stereo unspecified),–,inactive: -17.9%
Cc1cc(Oc2ccccc2)nc(-c2ccccc2O)n1,–,inactive: -11.7%
Cc1[nH]c2ccc(C(=O)N3CCCC3)cc2c1C,–,inactive: 20%
COc1ccccc1C(c1c(N)n(C)c(=O)n(C)c1=O)C(C)[N+](=O)[O-] (stereo unspecified),"inconclusive [inhibitor, single point]",–
Cc1ccc(S(=O)(=O)c2cn(Cc3ccc(F)cc3)c3cc(F)c(F)cc3c2=O)cc1,–,inactive: 0.186%
COc1ccc(OC)c(NC(=O)NCc2cccnc2)c1,–,inactive: -2.37%
Cc1ccc(C(=O)N=c2sccn2C)cc1C,–,inconclusive: -34.2% [inhibitor]
Cc1ccnc2ccc(I)cc12,"inconclusive [inhibitor, partial curve, poor fit]",–
N#CC1=C(SCC(=O)c2ccccc2)NC2=C(C(=O)CCC2)C1c1ccco1 (stereo unspecified),active: 2.91 µM,–
CCOC(=O)c1cc2c(=O)n3ccccc3nc2n(CC(C)C)c1=NC(=O)c1cc2ccccc2o1,–,inactive: -2.09%
CCOC(=O)C1(C)CCCN(C(=O)c2cccc(OC(F)(F)F)c2)C1 (stereo unspecified),"inconclusive [inhibitor, full curve, poor fit]",–
CCCCN(C(=O)CCCc1nc2ccccc2c(=O)[nH]1)c1c(N)n(CC(C)C)c(=O)[nH]c1=O,–,inactive: -5.95%
Cc1cccc(N2CCN(C(=O)c3c(Cl)cnn3C)CC2)c1C,"inconclusive [inhibitor, single point]",–
